# Data reported in the supplement of paper PMC8728848.
# Some of the results follow.
# B1: cupB6 (Pseudomonas aeruginosa), Q02SP7 (protein)
# chain: MSMRLFPGRVSLRRRPGAQARQALVLGLCCLTGGQAWALNEVALNCSFGNGKGLPWRVVNELTSGTAKGTVLFARPVSLFLSYKPQASQEAHELVLGGNWSGVGYPGPYGTVASDVKGIGYRISVDAQDGVKRVIPVDNQPHALDKRVTSFSGSTTSDYLQELVLTVDPGELPAGDLKVTSVSGSATLNLWAVDRLKGEASIGSVLAVPADNYPTGVCRKPYSLIGPASIAIGGGPPPPPIPKKCKVEVGREINVKLGSVALKNFPRVNDTSTERSFDISLSECAALAKPEIAFRDKYVSAQQADPTILSLKSGGAAGFGIVVKNGLDQQRIRFDGTPYPMRRVGDSADLPLSAAYIRIGAEGELKAGVADGAAEFTFTFP
# Legend:
# Test in all cases: glycan array binding signal (z-score within array); higher = stronger binding
# Conditions in all cases: glycan notation: IUPAC condensed, linker removed
# [1] = molecular target: GlcNAc6S(b1-3)Gal(b1-4)GlcNAc
# Method in brief: (§1)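 From the Consortium for Functional Glycomics database, 3228 arrays were curated, keeping only those whose protein sequence was available. Binding is given as a within-array Z-score averaged across arrays sharing a protein sequence and across linkers. Negative Z-scores can be read as non-binding.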
# [2] = molecular target: Kdn(a2-3)Gal(b1-3)GalNAc
# Method in brief: as §1
# [3] = molecular target: Kdn(a2-3)Gal(b1-3)GlcNAc
# Method in brief: as §1
# [4] = molecular target: Kdn(a2-3)Gal(b1-4)Glc
# Method in brief: as §1
# [5] = molecular target: Kdn(a2-3)Gal(b1-4)GlcNAc
# Method in brief: as §1
# [6] = molecular target: Kdn(a2-3)Gal(b1-4)[Fuc(a1-3)]GlcNAc
# Method in brief: as §1
# [7] = molecular target: Kdn(a2-6)Gal(b1-4)GlcNAc
# Method in brief: as §1
# [8] = molecular target: Man(a1-2)Man(a1-2)Man(a1-3)Man
# Method in brief: as §1
# [9] = molecular target: Man(a1-2)Man(a1-2)Man(a1-6)[Man(a1-3)]Man
# Method in brief: as §1
# [10] = molecular target: Man(a1-2)Man(a1-3)Man
# Method in brief: as §1
# [11] = molecular target: Man(a1-2)Man(a1-3)[Man(a1-2)Man(a1-6)]Man
# Method in brief: as §1
# [12] = molecular target: Man(a1-2)Man(a1-3)[Man(a1-2)Man(a1-6)]Man(a1-6)[Man(a1-2)Man(a1-2)Man(a1-3)]Man
# Method in brief: as §1
# [13] = molecular target: Man(a1-2)Man(a1-3)[Man(a1-2)Man(a1-6)]Man(a1-6)[Man(a1-2)Man(a1-2)Man(a1-3)]Man(b1-4)GlcNAc(b1-4)GlcNAc
# Method in brief: as §1
# [14] = molecular target: Man(a1-2)Man(a1-3)[Man(a1-6)]Man(a1-6)[Man(a1-2)Man(a1-3)]Man(b1-4)GlcNAc(b1-4)GlcNAc
# Method in brief: as §1
# [15] = molecular target: Man(a1-2)Man(a1-6)[Man(a1-3)]Man(a1-6)[Man(a1-2)Man(a1-2)Man(a1-3)]Man
# Method in brief: as §1
# [16] = molecular target: Man(a1-2)Man(a1-6)[Man(a1-3)]Man(a1-6)[Man(a1-2)Man(a1-2)Man(a1-3)]Man(b1-4)GlcNAc(b1-4)GlcNAc
# Method in brief: as §1
# [17] = molecular target: Man(a1-3)[Man(a1-6)]Man
# Method in brief: as §1
# [18] = molecular target: Man(a1-3)[Man(a1-6)]Man(a1-6)[Man(a1-2)Man(a1-3)]Man(b1-4)GlcNAc(b1-4)GlcNAc
# Method in brief: as §1
# [19] = molecular target: Man(a1-3)[Man(a1-6)]Man(a1-6)[Man(a1-3)]Man
# Method in brief: as §1
# [20] = molecular target: Man(a1-3)[Man(a1-6)]Man(a1-6)[Man(a1-3)]Man(b1-4)GlcNAc(b1-4)GlcNAc
# Method in brief: as §1
# [21] = molecular target: Man(a1-3)[Man(a1-6)]Man(b1-4)GlcNAc(b1-4)GlcNAc
# Method in brief: as §1
# [22] = molecular target: Man(a1-6)Man
# Method in brief: as §1
# [23] = molecular target: Man(b1-4)GlcNAc
# Method in brief: as §1
# [24] = molecular target: Neu5Ac(a2-3)Gal
# Method in brief: as §1
# [25] = molecular target: Neu5Ac(a2-3)Gal(b1-3)GalNAc
# Method in brief: as §1
# [26] = molecular target: Neu5Ac(a2-3)Gal(b1-3)GalNAc(b1-3)Gal(a1-4)Gal(b1-4)Glc
# Method in brief: as §1
# [27] = molecular target: Neu5Ac(a2-3)Gal(b1-3)GalNAc(b1-4)[Neu5Ac(a2-3)]Gal(b1-4)Glc
# Method in brief: as §1
# [28] = molecular target: Neu5Ac(a2-3)Gal(b1-3)GalNAc6S
# Method in brief: as §1
# [29] = molecular target: Neu5Ac(a2-3)Gal(b1-3)GlcNAc
# Method in brief: as §1
# [30] = molecular target: Neu5Ac(a2-3)Gal(b1-3)GlcNAc(b1-2)Man(a1-3)[Neu5Ac(a2-3)Gal(b1-3)GlcNAc(b1-2)Man(a1-6)]Man(b1-4)GlcNAc(b1-4)GlcNAc
# Method in brief: as §1
# [31] = molecular target: Neu5Ac(a2-3)Gal(b1-3)GlcNAc(b1-3)Gal(b1-3)GlcNAc
# Method in brief: as §1
# [32] = molecular target: Neu5Ac(a2-3)Gal(b1-3)GlcNAc(b1-3)Gal(b1-4)GlcNAc
# Method in brief: as §1
# [33] = molecular target: Neu5Ac(a2-3)Gal(b1-3)GlcNAc(b1-3)GalNAc
# Method in brief: as §1
# [34] = molecular target: Neu5Ac(a2-3)Gal(b1-3)GlcNAc6S
# Method in brief: as §1
# [35] = molecular target: Neu5Ac(a2-3)Gal(b1-3)[Fuc(a1-4)]GlcNAc
# Method in brief: as §1
# [36] = molecular target: Neu5Ac(a2-3)Gal(b1-3)[Fuc(a1-4)]GlcNAc(b1-3)Gal(b1-3)[Fuc(a1-4)]GlcNAc
# Method in brief: as §1
# [37] = molecular target: Neu5Ac(a2-3)Gal(b1-3)[Fuc(a1-4)]GlcNAc(b1-3)Gal(b1-4)[Fuc(a1-3)]GlcNAc
# Method in brief: as §1
# [38] = molecular target: Neu5Ac(a2-3)Gal(b1-3)[Neu5Ac(a2-3)Gal(b1-4)]GlcNAc
# Method in brief: as §1
# [39] = molecular target: Neu5Ac(a2-3)Gal(b1-3)[Neu5Ac(a2-6)]GalNAc
# Method in brief: as §1
# [40] = molecular target: Neu5Ac(a2-3)Gal(b1-4)Glc
# Method in brief: as §1
# [41] = molecular target: Neu5Ac(a2-3)Gal(b1-4)GlcNAc
# Method in brief: as §1
# [42] = molecular target: Neu5Ac(a2-3)Gal(b1-4)GlcNAc(b1-2)Man(a1-3)[GlcNAc(b1-2)Man(b1-4)GlcNAc(b1-2)Man(a1-6)]Man(b1-4)GlcNAc(b1-4)GlcNAc
# Method in brief: as §1
# [43] = molecular target: Neu5Ac(a2-3)Gal(b1-4)GlcNAc(b1-2)Man(a1-3)[Neu5Ac(a2-6)Gal(b1-4)GlcNAc(b1-2)Man(a1-6)]Man(b1-4)GlcNAc(b1-4)GlcNAc
# Method in brief: as §1
# [44] = molecular target: Neu5Ac(a2-3)Gal(b1-4)GlcNAc(b1-3)Gal(b1-3)GlcNAc
# Method in brief: as §1
# [45] = molecular target: Neu5Ac(a2-3)Gal(b1-4)GlcNAc(b1-3)Gal(b1-4)GlcNAc
# Method in brief: as §1
# [46] = molecular target: Neu5Ac(a2-3)Gal(b1-4)GlcNAc(b1-3)Gal(b1-4)GlcNAc(b1-3)Gal(b1-4)GlcNAc
# Method in brief: as §1
# [47] = molecular target: Neu5Ac(a2-3)Gal(b1-4)GlcNAc(b1-3)Gal(b1-4)[Fuc(a1-3)]GlcNAc
# Method in brief: as §1
# [48] = molecular target: Neu5Ac(a2-3)Gal(b1-4)GlcNAc(b1-3)GalNAc
# Method in brief: as §1
# [49] = molecular target: Neu5Ac(a2-3)Gal(b1-4)GlcNAc(b1-6)[Gal(b1-3)]GalNAc
# Method in brief: as §1
# [50] = molecular target: Neu5Ac(a2-3)Gal(b1-4)GlcNAc(b1-6)[Neu5Ac(a2-3)Gal(b1-3)]GalNAc
# Method in brief: as §1
# [51] = molecular target: Neu5Ac(a2-3)Gal(b1-4)GlcNAc6S
# Method in brief: as §1
# [52] = molecular target: Neu5Ac(a2-3)Gal(b1-4)[Fuc(a1-3)]GlcNAc
# Method in brief: as §1
# [53] = molecular target: Neu5Ac(a2-3)Gal(b1-4)[Fuc(a1-3)]GlcNAc(b1-3)Gal
# Method in brief: as §1
# [54] = molecular target: Neu5Ac(a2-3)Gal(b1-4)[Fuc(a1-3)]GlcNAc(b1-3)Gal(b1-4)GlcNAc
# Method in brief: as §1
# [55] = molecular target: Neu5Ac(a2-3)Gal(b1-4)[Fuc(a1-3)]GlcNAc(b1-3)Gal(b1-4)[Fuc(a1-3)]GlcNAc(b1-3)Gal(b1-4)[Fuc(a1-3)]GlcNAc
# Method in brief: as §1
binder,measurement,setting,value
B1,glycan array binding signal (z-score),[1],0.235
same,glycan array binding signal (z-score),[2],0.205
same,glycan array binding signal (z-score),[3],-0.105
same,glycan array binding signal (z-score),[4],0.27
same,glycan array binding signal (z-score),[5],-0.135
same,glycan array binding signal (z-score),[6],0.086
same,glycan array binding signal (z-score),[7],0.199
same,glycan array binding signal (z-score),[8],0.118
same,glycan array binding signal (z-score),[9],-0.141
same,glycan array binding signal (z-score),[10],0.328
same,glycan array binding signal (z-score),[11],-0.048
same,glycan array binding signal (z-score),[12],0.065
same,glycan array binding signal (z-score),[13],-0.203
same,glycan array binding signal (z-score),[14],0.006
same,glycan array binding signal (z-score),[15],-0.17
same,glycan array binding signal (z-score),[16],-0.157
same,glycan array binding signal (z-score),[17],-0.156
same,glycan array binding signal (z-score),[18],-0.118
same,glycan array binding signal (z-score),[19],-0.087
same,glycan array binding signal (z-score),[20],-0.11
same,glycan array binding signal (z-score),[21],-0.032
same,glycan array binding signal (z-score),[22],-0.285
same,glycan array binding signal (z-score),[23],-0.106
same,glycan array binding signal (z-score),[24],-0.176
same,glycan array binding signal (z-score),[25],-0.101
same,glycan array binding signal (z-score),[26],-0.167
same,glycan array binding signal (z-score),[27],0.058
same,glycan array binding signal (z-score),[28],-0.23
same,glycan array binding signal (z-score),[29],-0.118
same,glycan array binding signal (z-score),[30],-0.044
same,glycan array binding signal (z-score),[31],0.048
same,glycan array binding signal (z-score),[32],-0.113
same,glycan array binding signal (z-score),[33],-0.04
same,glycan array binding signal (z-score),[34],-0.067
same,glycan array binding signal (z-score),[35],-0.058
same,glycan array binding signal (z-score),[36],0.124
same,glycan array binding signal (z-score),[37],-0.153
same,glycan array binding signal (z-score),[38],-0.26
same,glycan array binding signal (z-score),[39],0.048
same,glycan array binding signal (z-score),[40],-0.146
same,glycan array binding signal (z-score),[41],0.123
same,glycan array binding signal (z-score),[42],0.007
same,glycan array binding signal (z-score),[43],-0.034
same,glycan array binding signal (z-score),[44],-0.03
same,glycan array binding signal (z-score),[45],-0.044
same,glycan array binding signal (z-score),[46],-0.134
same,glycan array binding signal (z-score),[47],-0.157
same,glycan array binding signal (z-score),[48],-0.119
same,glycan array binding signal (z-score),[49],-0.006
same,glycan array binding signal (z-score),[50],0.129
same,glycan array binding signal (z-score),[51],-0.163
same,glycan array binding signal (z-score),[52],-0.081
same,glycan array binding signal (z-score),[53],-0.184
same,glycan array binding signal (z-score),[54],0.009
same,glycan array binding signal (z-score),[55],-0.235
